Hit rate of the full screen: of about 48,000 compounds, about 450 (0.94%) were called active. Roughly 19% stayed inconclusive and do not appear here. Calls follow the shape of the dose curve; as a rule, active = well fitted inhibition curve with a large enough effect; inconclusive = small, poorly fitted or top-dose-only effect; inactive = no such curve, though single readings can be large or run the other way. Some of the results follow.
Test: Primary qHTS for Identification of Small Molecule Inhibitors of Huntingtin Promoter Activity; also: nearly all actives have a fitted effect of over 50% in size
Conditions: HEK293 HTT promoter firefly luciferase reporter (activity 0% = vehicle and -100% = no light), 24 h; series mostly up to 57.5 µM; activity change, negative = inhibition: at the top concentration
Outline: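 Firefly luciferase signal from promoter-reporter HEK293 cells was scaled between vehicle (0%) and zero RLU (-100%). Compounds were tested at final concentrations of up to 57.5 uM over 24 h at 37 degrees C. PTC124 at 50 uM final served as control inhibitor.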
Potency is read from the fitted curve at half-maximal effect.

Activity change, negative = inhibition, inactive:
O=C(OCC(O)CO)c1ccccc1Nc1ccnc2c(C(F)(F)F)cccc12 (stereo not drawn) -15.4%
Cc1cc(NC(=O)c2ccco2)cc(-c2nc3ccccc3o2)c1O -5.55%
CCCNC(=O)Cn1nc(-c2ccc(C)cc2)c2cnc3ccc(CC)cc3c21 -0.324%
CCN(C(=O)CCS(=O)(=O)c1cc2c(cc1C)NC(=O)CO2)c1cccc(C)c1 -5.63%
CCn1c(C)c(C)c2cc(C(=O)N3CCN(c4ccccc4)CC3)ccc21 -3.07%
CN(C)CCN(Cc1ccccc1)S(=O)(=O)c1csc(C(N)=O)c1 -8.83%
Cc1ccc(CNS(=O)(=O)c2c(C)nc3sc(C)cn3c2=O)cc1 -13%
Cc1ccc(Cl)cc1NC(=O)CN1C(=O)c2ccccc2Sc2ncccc21 -16.2%
COc1ccc(CCNC(=O)c2ccc3c(c2)nc2n3CCCCC2)cc1OC -26.6%
CCCn1cnc2cc(NC(=O)c3cc(OC)c(OC)c(OC)c3)ccc21 6.68%
Cc1cccc(N2CCN(Cc3nnc(-c4cccc(Br)c4)o3)CC2)c1C -19.7%
CCCOC(=O)c1cccc(NC(=O)CSc2nnc3cc(C)c4ccccc4n23)c1 -13.3%
CC(=O)c1ccc(NC(=O)c2nc(-c3ccccc3)n(-c3ccc(C)cc3)n2)cc1 -4.01%
Clc1ccc2nc(-c3ccc(N4CCOCC4)cc3)c(Nc3ccccc3)n2c1 11.7%
CCc1ccccc1N(C)C(=O)c1nn(-c2ccc(OC)cc2)c(=O)c2c1c1ccccc1n2C -6.35%
CCOc1ccc(CNc2cc(C)nc3nc(-c4cccc(C)c4)nn23)cc1OC 10.4%
Cc1cccc(NC(=O)c2ccc3oc(=O)c(S(=O)(=O)c4ccc(F)cc4)cc3c2)c1C -7.17%
CCOc1ccc(S(=O)(=O)c2cc3cccc(OCC)c3oc2=O)cc1 2.6%
CC1CCc2c(sc3nnn(Cc4ccccc4Cl)c(=O)c23)C1 (stereo not drawn) -16.7%
CCOc1ccccc1Oc1ncnc2c1oc1ccccc12 -25.8%
CC1CCC(NC(=O)c2ccc3c(c2)N(Cc2ccccc2F)C(=O)c2ccccc2S3(=O)=O)CC1 (stereo not drawn) 18.5%
CCOc1ccccc1CNCc1c(C(=O)O)n(Cc2ccccc2)c2cc(OC)ccc12 -13%
CCOc1ccccc1C1C(C(=O)Nc2ccccc2)=C(C)Nc2nc(-c3ccccc3)nn21 (stereo not drawn) -9.15%
COc1ccccc1OCc1nc2ccccc2n1Cc1ccccc1 -5.95%
CC(C)NC(=O)CSc1cn(CC(=O)N2CCCCCC2)c2ccccc12 -23.7%
Cc1ccc(-c2nnc3c4ccccc4c(-c4ccccc4)nn23)cc1 -4.46%
CCOc1ccccc1NCc1nnc2n1CCCCC2 -8.05%
COc1ccc(N2CCN(C(=O)c3cnc(N4CCOCC4)c4ccccc34)CC2)cc1 -25.4%
COc1ccc(C)cc1NC(=O)c1nnn(CC(=O)Nc2c(C)cccc2C)c1N -4.53%
CCc1cccc(NC(=O)c2cc3c(=O)oc4ccc(C)cc4c3s2)c1 -5.49%
COc1ccc(CNC(=O)C(CC(C)C)NS(=O)(=O)c2ccc3c(c2)oc(=O)n3C)cc1 (stereo not drawn) -18.1%
Cc1ccc(S(=O)(=O)c2cn(Cc3ccccc3)c3cc(N4CCCC4)c(F)cc3c2=O)c(C)c1 -4.93%
CSc1nnc(NC(=O)c2cc(=O)c3cc(C)c(C)cc3o2)s1 -1.68%
CCOc1c(CNCCSc2nnnn2C)cccc1OC -1.54%
Cc1cccc(C)c1NC(=O)C(=O)NCC(c1ccc2c(c1)OCO2)N1CCN(C)CC1 (stereo not drawn) -9.92%
COc1ccc(OC)c([C@@H]2Nc3ccc(C(=O)O)cc3[C@@H]3C=CC[C@@H]32)c1 -24.3%
CCc1cccc(NC(=O)C2CCCN2S(=O)(=O)c2ccc3nc(-c4ccccc4)[nH]c3c2)c1 (stereo not drawn) -29.6%
Cc1ccc(Cn2c(=O)n(Cc3ccc(C(=O)NC4CCN(Cc5ccccc5)CC4)cc3)c(=O)c3ccccc32)cc1 -11.1%
CC(=O)c1ccc(NC(=O)CCn2cccn2)cc1 4.81%
CN1C(=O)Cc2cc(S(=O)(=O)NCc3ccccc3Cl)ccc21 25.3%
O=C(c1ccc(Br)cc1)N(Cc1ccco1)c1ccccn1 4.34%
Cc1ccc(-n2c(C)nc3c(cnn3-c3ccccc3)c2=O)cc1 -9.7%
CCCc1ccc(OCc2ccc(C(=O)Nc3ccccc3C(=O)OC)o2)cc1 8.63%
CCc1ccc(NC(=O)Cn2c(=O)n(-c3cccc(OC)c3)c(=O)c3c(C)c(C(=O)N(C)C)sc32)cc1 3.25%
Cc1ccc2oc(C(=O)N3CCC(c4nc5ccccc5s4)CC3)c(C)c2c1 -18.4%
COc1ccc(-c2nc3n(n2)C(c2ccccc2OC)C(C(=O)Nc2cccnc2)=C(C)N3)cc1 (stereo not drawn) -6.15%
CCOc1ccc(C(=O)Nc2ccc3oc(-c4ccc(C)cc4C)nc3c2)cc1Br 9.65%

Potency, active:
O=C(NCc1cccc(Cl)c1)C1CCCN(c2nn3cc(-c4ccc(F)cc4)nc3s2)C1 (stereo not drawn) 2510 nM

From PubChem BioAssay AID1508623 (National Center for Advancing Translational Sciences (NCATS), 2021)
